Test results reported in PubChem BioAssay AID686978 (National Center for Advancing Translational Sciences (NCATS), 2013).
Among all 420,000 compounds or so, about 64,000 (15%) were called active. The shares of active, inactive and inconclusive entries below differ from those in the screen. Calls come from the whole dose curve; as a rule, active = well fitted inhibition curve with a large enough effect; inconclusive = small, poorly fitted or top-dose-only effect; inactive = flat fitted curve, though single readings scatter. Potencies of inconclusive entries are left out as doubtful fits.

Experiment: qHTS for Inhibitors of human tyrosyl-DNA phosphodiesterase 1 (TDP1): qHTS in cells in absence of CPT; note: nearly all actives have a fitted effect of over 55% in size
Settings: DT40 Tdp1-/- hTDP1 cells, no CPT, ATP luminescence, 48 h; series mostly up to 46.2 µM
In short: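 Chicken DT40 Tdp1-/- cells stably complemented with human TDP1 were seeded at 400 cells/well with DMSO in place of 20 nM camptothecin. After compound pinning, cells grew at least 48 hr at 37 °C; viability read by CellTiter-Glo luminescence.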
Potency is the fitted concentration of half-maximal effect; tags give direction and shape of the fitted curve.

SMILES	Potency
COC(=O)c1ccccc1NC(=O)c1sc2nc(C)cc(C)c2c1NC(=O)c1ccccc1OC	inactive
COc1ccc(C)cc1N(CC(=O)Nc1ccc(S(=O)(=O)N2CCCC2)cc1)S(C)(=O)=O	inactive
c1ccc(-n2c(SCC3CCCCO3)nnc2-c2cccs2)cc1 (centres undefined)	inconclusive [inhibitor, single point]
COc1ccc(/C=C/C(=O)Nc2nc(-c3cccs3)ns2)cc1	active: 18.4 µM
COc1ccc(CNC(=O)CN2C(=O)CSc3ccc(S(=O)(=O)N4CCC(C)CC4)cc32)cc1	inconclusive [inhibitor, single point]
COc1ccc(CNC(=O)c2cc3ccccc3o2)cc1OC	inconclusive [inhibitor, single point]
CCOc1ccc(C(=O)NC(=S)Nc2ccccc2N2CCCCC2)cc1[N+](=O)[O-]	inconclusive [inhibitor, partial curve, poor fit]
Cc1ccc(CCNc2ncnc3onc(-c4ccc(Cl)cc4)c23)cc1	active: 25.9 µM
CC1CCN(S(=O)(=O)c2nnc(NC(=O)c3cccc(Cl)c3)s2)CC1	active: 20.6 µM
O=C(NCCN1CCOCC1)c1cc(-c2ccccc2)nc2ccccc12	inconclusive [inhibitor, partial curve, poor fit]
COc1ccccc1NS(=O)(=O)c1cc(NC(=O)c2cc(=O)[nH]c3ccccc23)ccc1N1CCOCC1	inconclusive [inhibitor, single point]
N/C(=N\S(=O)(=O)c1ccccc1)c1ccc([N+](=O)[O-])cc1	inconclusive [inhibitor, single point]
O=C(O)c1ccccc1C(=O)c1ccc(Br)s1	inactive
COc1ccc(S(=O)(=O)N(C)C[C@H]2Oc3ccc(NC(=O)Nc4ccc5c(c4)OCO5)cc3CC(=O)N([C@@H](C)CO)C[C@@H]2C)cc1	inconclusive [inhibitor, single point]
O=C(N1CCCCC1)N1CCN(C(c2ccccc2)c2ccccc2)CC1	inconclusive [inhibitor, single point]
COc1ccc(NC(=O)CSc2nc3c(oc4ccccc43)c(=O)n2Cc2ccco2)cc1Cl	active: 20.6 µM
CCCc1nc2c(sc3nc4c(cc32)COC(C)(C)C4)c(=O)n1CCN(C)C	inconclusive [inhibitor, single point]
COc1ccc(/C=C2\Oc3cc(OCC(=O)N4CCC[C@H]4CO)ccc3C2=O)c(OC)c1	inconclusive [inhibitor, single point]
CCCCN(CCCNC(=O)c1ccc2c(c1)NC(=O)CN2C)c1ccccc1	inconclusive [inhibitor, single point]
CCN1c2ccccc2-c2nc3ccccc3n2C1c1ccccn1 (centres undefined)	active: 16.4 µM
Cc1ccc(-c2cn3c(n2)sc2cc(C(=O)NCCC4=CCCCC4)ccc23)cc1	inactive
Cc1ccc(Cc2c(-c3ccc(Br)cc3)nc3ccc(Br)cn23)cc1	inconclusive [inhibitor, partial curve, poor fit]

SMILES	Potency
C[C@@H](CSc1ccccc1)CN1CC[C@H](NC(=O)OCc2ccccc2)CCC1=O	active: 10 µM
Cc1cc(NC(=O)c2noc3c2CCCCC3)nn1Cc1ccc(Cl)cc1	inactive
COc1ccc([C@@H]2CC=C(C(=O)O)[C@H](c3ccc(C(C)(C)C)cc3)N2S(=O)(=O)c2ccc(C)cc2)cc1OC	active: 14.6 µM
O=C(Nc1cc(C(F)(F)F)ccc1N1CCCC1)c1ccc2c(c1)OCO2	inconclusive [inhibitor, partial curve]
COc1ccc(-c2nc(S(=O)(=O)c3ccc(Cl)cc3)c(NCc3ccccc3)o2)cc1	inconclusive [inhibitor, partial curve]
Oc1c(Cl)c(Cl)c2ncccc2c1Cl	inconclusive [inhibitor, single point]
CCOc1ncccc1C(=O)OC(C)C(=O)NC(=O)NC1CCCCC1 (centres undefined)	inconclusive [inhibitor, partial curve]
CCOC(=O)N1CCN(C(=O)C[C@@H]2C[C@@]3(C(=O)OCC)CCC=C3N(Cc3ccc(Cl)cc3Cl)C2=O)CC1	active: 14.6 µM
C#CCOCCOCCOCCNc1nc(N2CCN(C(=O)CCCCCCCCCCNC(=O)[C@@H](CCSC)n3cc(CCO)nn3)CC2)nc(N2CCN(C(=O)CCCCCCCCCCNC(=O)[C@H](CO)n3cc(CCCCCN)nn3)CC2)n1	inconclusive [inhibitor, single point]
Cc1ccc(-c2cc(C(=O)Nc3cccc(S(=O)(=O)N(C)C)c3)c3ccccc3n2)o1	active: 16.4 µM
CCC(C)c1ccc(NC(=O)C2CCN(c3ncccn3)CC2)cc1 (centres undefined)	inconclusive [inhibitor, single point]
Cc1ccccc1NC(=O)COc1coc(CN2CCCc3ccccc32)cc1=O	active: 14.6 µM
CCOC(=O)CSc1nc2c(sc3ccccc32)c(=O)n1CCO	inconclusive [inhibitor, single point]
COc1cc(Br)cc(C2C3=C(CCCC3=O)N(c3ccc(F)cc3)C3=C2C(=O)CCC3)c1O	inconclusive [inhibitor, single point]
CN(C)c1cccc(C(=O)Nc2ccc(S(=O)(=O)Nc3nccs3)cc2)c1	inactive
CCC(CC)c1nnc(NC(=O)Oc2ccccc2)s1	inactive
COc1ccc(C(=O)CN2C(=O)NC3(CCCCCC3)C2=O)cc1	inactive
COCC(=O)n1nc(-c2ccccc2)nc1NCc1ccc(F)cc1	inactive
CC(=O)c1ccc(S(=O)(=O)Nc2ccc(C(=O)NCC(c3ccco3)N3CCCC3)cc2)cc1 (centres undefined)	inactive
O=C1CN(C(=O)c2ccccc2)C(c2ccccc2)c2cc(F)ccc2N1 (centres undefined)	inactive
COc1cc(C(=O)OC(C)C(=O)NC(=O)NC2CCCCC2)ccc1OC(F)F (centres undefined)	inactive
C=CCOC(=O)C1=C[C@@H](c2coc3ccccc3c2=O)C[C@@H](OCc2ccc(CO)cc2)O1	inconclusive [inhibitor, partial curve]
